Source: patent US20140314857A1, “FORMULATIONS FOR ENHANCED BIOAVAILABILITY OF ZANAMIVIR” (priority 2012, published 2014)
Where “and” joins values, the source holds several entries; their conditions need not be identical. Equal entries are not always repeated. The source gives many values for each of these; only a part stands here.

Assay: Intravenous and intraduodenal bioavailability of zanamivir from three formulations (Example 5)
Conditions: individual rats
Description: Male Sprague-Dawley rats (Hilltop Labs), 3 animals per treatment group, 250-350 grams in weight, were fitted with a jugular vein cannula (JVC). Animals intended for intraduodenal dosing were also fitted with one or more intraduodenal cannula (IDC) and those intended for intravenous dosing were fitted with a second JVC. Food was withheld from the animals for a minimum of twelve hours prior to test article administration and was returned approximately four hours post-dose. Water was supplied ad libitum.
Intraduodenal doses composed of 1.5 mg of zanamivir and varying amounts of an enhancer (glycerol or Capmul MCM L8) were injected directly into the duodenum via the IDC. Intravenous dosing was conducted by the injection of 1.5 mg of zanamivir in 200 μL of PBS through a JVC. For some experiments, the absorption enhancer was administered intraduodenally 2 hr prior to administering 1.5 mg of zanamivir in PBS through a second IDC. Each intraduodenal dose was followed with the introduction of a small air bubble (˜10 μL) in the cannula followed by a flush of 125 μL of PBS to ensure the dose was given in full. The volume of PBS used for cannula flush was consistent across the treatment groups. The cannula was tied to prevent the PBS remaining in the cannula from entering the duodenum.
Blood samples collected via the JVC, approximately 400 μL each, were obtained at 2 min, 5 min, 15 min, 30 min, 60 min, 90 min, and 120 min, with sodium heparin used as an anti-coagulant. Each sample was placed into a chilled tube containing the anticoagulant and kept on ice until centrifugation at 4° C., 3,000×g, for 5 min. The plasma supernatants were stored at −70° C. until LC-MS analysis.
Dosing solution samples were assayed by LC-MS/MS using electrospray ionization. The chromatographic system consisted of Perkin Elmer series 200 micropumps and autosampler equipped with a Waters Atlantic® HILIC Silica 3 μM, 2.1×50 mm column. The mass spectrometer was a PE Sciex API 4000 with electrospray interface in multiple reaction monitoring mode. […] Stock solutions (1 mg/mL zanamivir) were prepared in water. Standards (eight concentrations) were prepared in the appropriate matched matrix (HBSSg or Sprague-Dawley rat plasma containing sodium heparin) and diluted 50-fold with methanol. Experimental samples were treated identically.
Standards and samples were prepared in Sprague Dawley rat plasma containing sodium heparin as an anticoagulant. An eight-point calibration curve was prepared at concentrations of 1000, 750, 500, 250, 100, 50, 25, and 10 ng/mL by serial dilution. Standard samples were treated identically to the study samples.
Plasma samples were extracted by protein precipitation in methanol.
In this example, the bioavailability of Zanamivir was evaluated after intravenous and intraduodenal doses in male Sprague-Dawley rats. The test compound was dosed at 1.5 mg/animal through intravenous and intraduodenal routes from different formulations. Plasma levels were determined by LC-MS/MS analysis. Pharmacokinetic parameters were estimated by a non-compartmental model using WinNonlin v4.1 software.

CC(=O)NC1C(NC(=N)N)C=C(C(=O)O)OC1C(O)C(O)CO (stereo not drawn) [Zanamivir, 5-acetamido-4-guanidino-6-(1,2,3-trihydroxypropyl)-5,6-dihydro-4H-pyran-2-carboxylic acid]
Plasma concentration (ID 1.5 mg/animal, Capmul MCM L8 50 µL, Ex.5, 0.25 hr): 2680 ng/mL and 3520 ng/mL and 6850 ng/mL
Plasma concentration (ID 1.5 mg/animal, Capmul MCM L8 50 µL, Ex.5, 0.5 hr): 1950 ng/mL and 2420 ng/mL and 4370 ng/mL
Plasma concentration (ID 1.5 mg/animal, Capmul MCM L8 50 µL, Ex.5, 0.83 hr): 4560 ng/mL and 4840 ng/mL and 12300 ng/mL
Plasma concentration (ID 1.5 mg/animal, Capmul MCM L8 50 µL, Ex.5, 1.0 hr): 644 ng/mL and 898 ng/mL and 1710 ng/mL
Plasma concentration (ID 1.5 mg/animal, Capmul MCM L8 50 µL, Ex.5, 1.5 hr): 300 ng/mL and 472 ng/mL and 962 ng/mL
Plasma concentration (ID 1.5 mg/animal, Capmul MCM L8 50 µL, Ex.5, 2.0 hr): 147 ng/mL and 193 ng/mL and 482 ng/mL
Plasma concentration (ID 1.5 mg/animal, Glycerol 50 µL, 0.25 hr): 737 ng/mL and 986 ng/mL
Plasma concentration (ID 1.5 mg/animal, Glycerol 50 µL, 0.5 hr): 659 ng/mL and 755 ng/mL
Plasma concentration (ID 1.5 mg/animal, Glycerol 50 µL, 0.83 hr): 77.1 ng/mL and 105 ng/mL
Plasma concentration (ID 1.5 mg/animal, Glycerol 50 µL, 1.0 hr): 49.2 ng/mL and 797 ng/mL and 400 ng/mL
Plasma concentration (ID 1.5 mg/animal, Glycerol 50 µL, 1.5 hr): 85.1 ng/mL and 71 ng/mL
Plasma concentration (ID 1.5 mg/animal, Glycerol 50 µL, 2.0 hr): 65.3 ng/mL and 65.6 ng/mL
Plasma concentration (ID 1.5 mg/animal, PBS 50 µL, 0.25 hr): 105 ng/mL and 139 ng/mL and 43.9 ng/mL
Plasma concentration (ID 1.5 mg/animal, PBS 50 µL, 0.5 hr): 186 ng/mL and 159 ng/mL and 56.4 ng/mL
Plasma concentration (ID 1.5 mg/animal, PBS 50 µL, 0.83 hr): 60.2 ng/mL and 25.2 ng/mL and 30.7 ng/mL
Plasma concentration (ID 1.5 mg/animal, PBS 50 µL, 1.0 hr): 117 ng/mL and 97.9 ng/mL and 44.2 ng/mL
Plasma concentration (ID 1.5 mg/animal, PBS 50 µL, 1.5 hr): 82 ng/mL and 41.6 ng/mL
Plasma concentration (ID 1.5 mg/animal, PBS 50 µL, 2.0 hr): 42.6 ng/mL and 53.4 ng/mL
Plasma concentration (ID 1.5 mg/animal, PBS, 50 µL blank glycerol -2 hr, 0.25 hr): 58.1 ng/mL and 58.9 ng/mL
Plasma concentration (ID 1.5 mg/animal, PBS, 50 µL blank glycerol -2 hr, 0.5 hr): 77.5 ng/mL and 81.8 ng/mL and 39.6 ng/mL
Plasma concentration (ID 1.5 mg/animal, PBS, 50 µL blank glycerol -2 hr, 0.83 hr): 58.1 ng/mL and 43.2 ng/mL
Plasma concentration (ID 1.5 mg/animal, PBS, 50 µL blank glycerol -2 hr, 1.0 hr): 45.7 ng/mL and 95.8 ng/mL and 49.5 ng/mL
Plasma concentration (ID 1.5 mg/animal, PBS, 50 µL blank glycerol -2 hr, 1.5 hr): 26.9 ng/mL and 78.2 ng/mL and 37.3 ng/mL
Plasma concentration (ID 1.5 mg/animal, PBS, 50 µL blank glycerol -2 hr, 2.0 hr): 43.7 ng/mL and 76.7 ng/mL and 33.9 ng/mL
Plasma concentration (IV 1.5 mg/animal, Normal Saline, Ex.5, 0.033 hr): 22900 ng/mL and 24600 ng/mL
Plasma concentration (IV 1.5 mg/animal, Normal Saline, Ex.5, 0.25 hr): 11000 ng/mL and 10800 ng/mL
Plasma concentration (IV 1.5 mg/animal, Normal Saline, Ex.5, 0.5 hr): 6630 ng/mL and 6120 ng/mL
Plasma concentration (IV 1.5 mg/animal, Normal Saline, Ex.5, 1.0 hr): 2620 ng/mL and 2040 ng/mL
Plasma concentration (IV 1.5 mg/animal, Normal Saline, Ex.5, 1.5 hr): 1050 ng/mL and 692 ng/mL
Plasma concentration (IV 1.5 mg/animal, Normal Saline, Ex.5, 2.0 hr): 665 ng/mL and 452 ng/mL
